PubChem BioAssay (NCI)
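Interpolation was linear, between the two tested concentrations surrounding the appropriate level; five concentrations were tested over 48 hours in 96-well plates. GI50: concentration for 50% inhibition of growth. TGI: concentration producing complete growth inhibition.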

Test system: NCI-H322M lung
Experiment: inhibition of tumour cell growth, NCI panel, 48 h

| Compound | GI50 [µM] | TGI [µM] |
| --- | --- | --- |
| CSC1=Nc2c(c(C)c(-c3ccccc3)n2CCCN2CCCCC2)C2=NC(=O)C[C@H](C)N12 | 9.2 | > 94.6 |
| Clc1ccc(Nc2nnc(CCCCCCCCc3nnc(Nc4ccc(Cl)cc4)o3)o2)cc1 |  | > 100 |
| COC1OC(CO)C(O)C(OC(C)=O)C1NC(=O)N(CCCl)N=O (stereo unspecified) |  | > 100 |
| Cc1c2ccnc(C(=O)NCCN(C)C)c2cc2c3cc(O)ccc3n(C)c12 |  | 4.14 |
| S=C(NNC1=NCCCCN1)Nc1ccc(Cl)cc1 |  | > 100 |
| CC(=O)OC(CN1CCN(c2ccccn2)CC1)Cn1sc2nc(C)cc(C)c2c1=O (stereo unspecified) |  | 32.1 |
| C[C@]12CC[C@@H]3c4cc(OC(F)F)c(O)cc4CC[C@H]3[C@@H]1CC[C@@H]2OS(N)(=O)=O | 3.14 | 98.5 |
| CO/C=C/C(=O)c1cc2cnc3c(=N)cc(NC(=O)C(C)C)c([nH]1)c23 | 0.33 | 2.37 |
| c1ccc(N2N=C(c3cccc(Nc4ccncc4)c3)CC2c2ccc3c(c2)OCO3)cc1 (stereo unspecified) | 2.04 | 5.27 |
| OCc1cc2c(ccc3sc4ccc5sc6ccc7ncccc7c6c5c4c32)s1 |  | 17.3 |
| CC(=O)OCC(OC(C)=O)C(OC(C)=O)C(/C=N\Nc1nc2ccccc2c(=O)[nH]1)=N\Nc1nc2ccccc2c(=O)[nH]1 (stereo unspecified) |  | > 100 |
| O=C(CC(CC(=O)Oc1c(Br)cc(Br)cc1C(=O)O)C(=O)Oc1c(Br)cc(Br)cc1C(=O)O)Oc1c(Br)cc(Br)cc1C(=O)O |  | > 100 |
| O=P1(Oc2ccccc2)N=P(c2ccccc2)(c2ccccc2)C=C(c2ccc(Cl)cc2)N1 (stereo unspecified) |  | 26.4 |
| Cc1nc2c(c(=O)[nH]1)S/C(=C(/C#N)c1nc3ccccc3[nH]1)N2c1ccccc1 |  | > 100 |
| CC(=O)Nc1ccccc1-c1nc2ccccc2nc1C |  | > 100 |
| CCCC(=O)NC(Nc1cc(C)ccn1)(C(=O)OCC)C(F)(F)F (stereo unspecified) |  | > 100 |
| CC1=NN(c2nc(N)nc(CBr)n2)C(C)(C)C1 |  | 30.8 |
| CC1=NN(C(=O)c2ccccc2O)C(=O)/C1=C/c1cccc(O)c1 |  | > 100 |
| Cc1c(C)c(C)c(CC2(C)CSC2)c(CC2(C)CSC2)c1C |  | > 100 |
| NC(CSCc1ccc(I)cc1)C(=O)O (stereo unspecified) |  | > 100 |
| C[n+]1c(/C=C/c2c[nH]c3ccccc23)ccc2ccccc21 | 7 | 28 |
| CCN(CC)CCC(=O)c1ccc(Sc2ccc(F)cc2)cc1 |  | 37.9 |
| O=C(COc1ccc(/C=C2\COc3ccccc3C2=O)cc1)Nc1nccs1 | 13.7 | 28.2 |
| CCCCNc1nc2ccccc2c2c1ncn2CC(C)C |  | > 100 |
| NCCCNc1nc2ccccc2c2c(=O)c3cc(F)cc(F)c3sc12 | 1.73 | 3.19 |

| Compound | GI50 [µM] | TGI [µM] |
| --- | --- | --- |
| CCCCCCCCOCC(O)COC(C)C (stereo unspecified) |  | > 100 |
| CCN(CC)CC(C)(C)C(=O)/C=C/c1cccc(/C=C/C(=O)C(C)(C)CN(CC)CC)c1 |  | 2.89 |
| CCCCc1ccc(Nc2nc(Cl)c3ncn(COCCOC(C)=O)c3n2)cc1 |  | 32.2 |
| C=CCc1[nH]c2c(OCc3ccccc3)cc(N(CC=C)C(C)=O)cc2c1C |  | 24.7 |
| O=C(O)CSC(CC1(c2ccc(Cl)cc2)NC(=O)CS1)c1ccc(Cl)cc1 (stereo unspecified) |  | > 100 |
| N=C(N)c1ccc(-c2ccc(-c3ccc(Cl)cc3Cl)o2)nc1 | 1.63 | 2.99 |
| Cc1cccc(-c2[nH]ncc2-c2ccc3ncccc3n2)n1 | 14.2 | > 25 |
| CCOC(=O)c1ccc2c(c1)Cc1cc([N+](=O)[O-])ccc1-2 |  | > 100 |
| Cc1cc([N+](=O)[O-])ccc1Sc1c2ccccc2nc2cc(Cl)ccc12 |  | > 100 |
| O=C(NC(Cl)(C(F)(F)F)C(F)(F)F)c1ccc(F)cc1 |  | > 100 |
| NC(=S)N/N=C/c1nccc2ccccc12 |  | 33 |
| COc1ccc(OC(C)=O)c2c1CCC=CC2=O |  | 32.8 |
| c1ccc([CH2][Sn]([CH2]c2ccccc2)([O]c2cccc3cccnc23)[O]c2cccc3cccnc23)cc1 | 0.725 | 1.95 |
| Cc1cc(=O)[nH]c(N/N=C/c2cc(Br)ccc2O)n1 | 0.266 | 0.729 |
| COc1cccc2ccc(C(=O)c3ccccc3)nc12 |  | > 100 |
| NC1=NC2=c3ccccc3=C(c3cnccn3)C2(c2cnccn2)c2ccccc21 (stereo unspecified) |  | > 100 |
| O=C(Cn1cc(-c2ccccc2)nn1)NC1CCCCC1 |  | > 100 |
| CCOC(=O)C1=C(C)N=c2s/c(=C\c3ccccc3O)c(=O)n2C1c1ccc(OC)c2ccccc12 (stereo unspecified) | 15.7 | 59 |
| CCCCCC1CC=CC(=O)O1 (stereo unspecified) |  | 14.4 |
| CC(=O)Nc1ccc(NS(=O)(=O)c2ccc3nc(C)n(NS(=O)(=O)c4ccc(NC(C)=O)cc4)c(=O)c3c2)cc1 |  | > 100 |
| CCCCCCCCCCCCCCCCCCNc1ccn(C2OC(COP(=O)(O)OCC3OC(n4cc(C)c(=O)[nH]c4=O)CC3F)C(O)C2O)c(=O)n1 (stereo unspecified) |  | 19.2 |
| C=CCNC(=S)N=Nc1c(O)n(CN2CCOCC2)c2ccc([N+](=O)[O-])cc12 |  | > 100 |
| O=[N+]([O-])c1ccc(-c2cc(O)c3nc4ccccc4n3c2)cc1 |  | > 100 |
| Nc1ccccc1NC(=O)c1ccc(CNc2nccc(-c3cccnc3)n2)cc1 | 1.92 | > 100 |
| CC(C)(C)n1c(=O)n2n(c1=O)Cc1cccc3cccc(c13)C2 |  | > 100 |

| Compound | GI50 [µM] | TGI [µM] |
| --- | --- | --- |
| CCOC(=O)CCC(NC(=O)Cc1ccc(Nc2nc3ccccc3nc2-c2cccs2)cc1)C(=O)OCC (stereo unspecified) |  | > 100 |
| CC[C@H](NC(=O)[C@H]1CCCCN1C)C(=O)N(C)[C@H](C[C@@H](OC(C)=O)c1nc(C(=O)N[C@@H](Cc2ccccc2)C[C@H](C)C(=O)O)cs1)C(C)C | 0.00755 | > 14.3 |
| COc1cc([C@@H]2c3cc4c(c(O)c3C[C@H]3COC(=O)[C@@H]32)OCO4)cc(OC)c1OC | 0.648 |  |
| COc1ccc2c(c1)[n+]([O-])c(-c1ccc([N+](=O)[O-])cc1)c(N)[n+]2[O-] |  | > 100 |
| COc1cc2c(cc1C[C@H]1[C@@H]3C[C@H]4c5c(c6ccccc6n5C)C[C@@H]([C@@H]3CO[C@]1(C)OC(C)=O)N4C)c1c(n2C)C2C[C@H]3C(C(C)=O)=COC[C@H]3[C@H](C1)N2C |  | 14.1 |
| O=C1/C(=N\O)c2ccccc2S1(=O)=O |  | > 100 |
| CC(C)(C)c1cc(-c2cc(C(C)(C)C)[nH]n2)n[nH]1 |  | > 100 |
| CC(C)(C)N1CCC1CN (stereo unspecified) | > 100 | > 100 |
| O=C1C(Cl)=C(Sc2nnc3c4ccccc4c4ccccc4c3n2)C(=O)c2ccccc21 |  | 31.1 |
| COC(=O)C(Cc1nc2ccccc2[nH]c1=O)/C(=N\NC(C)(C)C)C(=O)Nc1c(C)cc(Br)cc1C (stereo unspecified) |  | > 100 |
| COc1cc2nc(Nc3cccc(Br)c3)nc(Nc3cccc(Br)c3)c2cc1OC |  | 52 |
| COc1ccc(N=Cc2c(O)ccc3c2oc2cc(Cl)c(O)c(Cl)c23)cc1 | 14.5 | 48.5 |
| O=C(/C=C/c1ccco1)c1cc(F)c(Cl)cc1Cl | 20 | 57.8 |
| C(/C=C/c1ccccc1)=Nc1ccc2c(c1)Cc1ccccc1-2 |  | > 100 |
| O=C(NC(=S)Nc1ccc2c(c1)Sc1ccccc1O2)c1ccc([N+](=O)[O-])cc1 |  | > 100 |
| Cc1ccc(S(=O)(=O)CN2C(=O)C(c3ccccc3)(c3ccccc3)C23OC(c2ccc(Cl)cc2)=CC3=O)cc1 (stereo unspecified) |  | > 10 |
| Cc1ccc(NC(=O)c2ccc(CN3CCN(C)CC3)cc2)cc1Nc1nccc(-c2cccnc2)n1 | 23.1 | 65.6 |
| NS(=O)(=O)OCC1OC(n2cnc3cncnc32)C(O)C1O (stereo unspecified) | 0.0188 | 0.0692 |
| O=C(c1ccco1)c1nc2cc(C(F)(F)F)ccc2nc1C(F)(F)F | > 100 | > 100 |
| O=C1C(C(O)(C(F)(F)Cl)C(F)(F)Cl)CCCC1C(O)(C(F)(F)Cl)C(F)(F)Cl (stereo unspecified) |  | > 10 |
| CCOC(=O)c1ccccc1OC(=O)NNc1ccccc1 | > 38.3 | > 100 |
| Cc1ccc(S(=O)(=O)c2ccc(NC(=O)SCCC(=O)O)cc2)cc1 |  | > 100 |
| N#CC(N)c1ccc(OCCCCCCCCCCOc2ccc(C(N)C#N)cc2)cc1 (stereo unspecified) |  | > 100 |
| CC(=O)N(C)c1ccc(N=CN(C)C)cc1 |  | > 100 |
| Oc1ccc([Te]CCNCC[Te]c2ccc(O)cc2)cc1 |  | 84.5 |

| Compound | GI50 [µM] | TGI [µM] |
| --- | --- | --- |
| O=C1/C(=C\c2ccc(F)cc2)CN(C(=O)c2ccccc2)C/C1=C\c1ccc(F)cc1 | 15.6 | 76.5 |
| C=C1CCCC2[C@](C)(CC3=C(Cl)C(=O)C=C(OC)C3=O)C(C)CC[C@]12C (stereo partly specified) |  | 22.1 |
| CC1(C)N=C(N)N=C(N)N1c1ccc(CCCCc2ccccc2)c(Cl)c1 | 0.104 | 16.2 |
| Cc1cc(Nc2ccc(OCc3ccccc3)cc2)nc2cc(O)ccc12 | 11 | 24.7 |
| CN1CCC(COc2cnc(-c3cccc(Cn4nc(-c5cccc(C#N)c5)ccc4=O)c3)nc2)CC1 | 6.22 | 22.5 |
| c1ccc2c(CN3CCN(Cc4c[nH]c5ccccc45)CC3)c[nH]c2c1 |  | 45.1 |
| COC(=O)[C@H](Cc1ccccc1)NC(=O)/C(=C/C(C)C)NC(=O)[C@H](CCSC)NC=O |  | > 100 |
| O=C1C(Cl)N(c2cccc(Cl)c2)C1c1c[nH]c2ccccc12 (stereo unspecified) |  | > 100 |
| C[Si](C)(C)C#Cc1cc(-c2nc3ccccc3s2)ccc1N |  | 31.8 |
| O=c1ccn(CC2(CO)CCCC2)c(=O)[nH]1 |  | > 100 |
| COc1ccc2sc3cccc(NCCN(C)C)c3c(=O)c2c1 | 4.06 | 16.2 |
| CC(=O)Nc1ccc(/C=c2\sc3nnc(CCC(=O)Nc4ccccc4Cl)n3c2=O)cc1 |  | > 100 |
| COC1=CC(c2ccc[nH]2)=N/C1=C\c1[nH]c(C)c(CC(=O)OCc2ccccc2)c1CCC(=O)OCc1ccccc1 | 0.896 | 12.9 |
| O=C(c1ccccc1)c1ccc(N2C(=O)/C(=C/Cc3ccco3)N=C2c2ccccc2)c(N2C(=O)/C(=C/Cc3ccco3)N=C2c2ccccc2)c1 |  | > 100 |
| Nc1nc2c(ncn2C2CCC(CO)O2)c(=O)n1C(=O)c1ccccc1 (stereo unspecified) |  | > 100 |
| CN(C)c1ccc(/C=C/C(=O)[O-])cc1.CN(C)c1ccc(/C=C/C(=O)[O-])cc1.[Cu+2] |  | > 100 |
| O=C(C=C1SCCS1)/C=C\c1ccc(Cl)cc1 |  | > 100 |
| COc1ccc(/C=C(/C(=O)N2CCN(c3ccccc3)CC2)c2cc(OC)c(OC)c(OC)c2)cc1N | 0.576 | > 100 |
| CCOC1=NC(C(F)(F)F)(C(F)(F)F)N=C(N2CCOCC2)O1 |  | > 100 |
| COc1c(O)c(OC)c2oc(-c3ccc(O)c(O)c3)c(OC)c(=O)c2c1O |  | > 100 |
| CC(=O)N1N=C(c2ccc3ccccc3c2O)CC1c1cccs1 (stereo unspecified) |  | > 100 |
| C=CCC(N[C@@H](CO)c1ccccc1)c1cn(Cc2ccccc2Cl)c(=O)n(Cc2ccccc2Cl)c1=O (stereo partly specified) | > 100 | > 100 |
